# Results as given in the supplement of paper PMC8728848.
# This is one part of the list.
# B1: Epa7 (Candida glabrata), Q6DTM6_CANGB (protein)
# chain: MGSSHHHHHHSSGLVPRGSHMKDDYSSFLSNNNLGWTDPTEFPLGCSPNVTTPKNGLSMELYSYDLRKNGSYPCWDAAYLDPNYPRTGYKSHRLLAKVDGVTGNINFYYHATKGCTPEIDHLPASYNYPKPLTMTNFTMLLYGYFKPKVTGYHTFTISADDLLFVNFGAGNAFDCCKRESSADDFGNYQAYAVWGSQTAKDDLTVHLDAGLYYPIRIFFNNREYDAELSLTLKTESDSNPVIDFSDYFYSFDDTKDGCPGLVSYDTS
# Tests used:
# Experiment in all cases: glycan array binding signal (z-score within array); higher = stronger binding
# Settings in all cases: glycan notation: IUPAC condensed, linker removed
# GalNAc(b1-6)GalNAc = target: GalNAc(b1-6)GalNAc
# Procedure, shortened: (§1)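 Negative Z-scores can be read as non-binding. The Z-score is calculated within each array and then averaged across arrays of one protein sequence at different concentrations or buffers and across linkers. Arrays, 3228 in all, were curated from the Consortium for Functional Glycomics database and kept only where the protein sequence was available.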
# GalNAc3S(b1-4)GlcNAc = target: GalNAc3S(b1-4)GlcNAc
# Procedure, shortened: as §1
# GalNAc3S(b1-4)GlcNAc3S = target: GalNAc3S(b1-4)GlcNAc3S
# Procedure, shortened: as §1
# [1] = target: GalNAc3S(b1-4)[Fuc(a1-3)]GlcNAc
# Procedure, shortened: as §1
# GalNAc4S6S(b1-4)GlcNAc = target: GalNAc4S6S(b1-4)GlcNAc
# Procedure, shortened: as §1
# GalNAc6S(b1-4)GlcNAc = target: GalNAc6S(b1-4)GlcNAc
# Procedure, shortened: as §1
# Glc(a1-4)Glc = target: Glc(a1-4)Glc
# Procedure, shortened: as §1
# [2] = target: Glc(a1-4)Glc(a1-4)Glc(a1-4)Glc
# Procedure, shortened: as §1
# Glc(a1-6)Glc(a1-6)Glc = target: Glc(a1-6)Glc(a1-6)Glc
# Procedure, shortened: as §1
# [3] = target: Glc(a1-6)Glc(a1-6)Glc(a1-6)Glc
# Procedure, shortened: as §1
# Glc(b1-4)Glc = target: Glc(b1-4)Glc
# Procedure, shortened: as §1
# Glc(b1-6)Glc = target: Glc(b1-6)Glc
# Procedure, shortened: as §1
# GlcA(b1-3)Gal = target: GlcA(b1-3)Gal
# Procedure, shortened: as §1
# GlcA(b1-3)GlcNAc = target: GlcA(b1-3)GlcNAc
# Procedure, shortened: as §1
# GlcA(b1-6)Gal = target: GlcA(b1-6)Gal
# Procedure, shortened: as §1
# [4] = target: GlcA3S(b1-3)Gal(b1-4)GlcNAc(b1-2)Man
# Procedure, shortened: as §1
# [5] = target: GlcA3S(b1-3)Gal(b1-4)GlcNAc(b1-3)Gal(b1-4)Glc
# Procedure, shortened: as §1
# [6] = target: GlcNAc(a1-3)Gal(b1-4)GlcNAc
# Procedure, shortened: as §1
# [7] = target: GlcNAc(a1-4)Gal(b1-3)GlcNAc
# Procedure, shortened: as §1
# [8] = target: GlcNAc(a1-4)Gal(b1-4)GalNAc
# Procedure, shortened: as §1
# [9] = target: GlcNAc(a1-4)Gal(b1-4)GlcNAc
# Procedure, shortened: as §1
# [10] = target: GlcNAc(a1-4)Gal(b1-4)GlcNAc(b1-3)Gal(b1-4)Glc
# Procedure, shortened: as §1
# [11] = target: GlcNAc(a1-4)Gal(b1-4)GlcNAc(b1-3)Gal(b1-4)GlcNAc
# Procedure, shortened: as §1
# [12] = target: GlcNAc(a1-4)Gal(b1-4)GlcNAc(b1-3)Gal(b1-4)GlcNAc(b1-3)Gal(b1-4)GlcNAc
# Procedure, shortened: as §1
# [13] = target: GlcNAc(a1-4)Gal(b1-4)GlcNAc(b1-3)Gal(b1-4)[Fuc(a1-3)]GlcNAc(b1-3)Gal(b1-4)[Fuc(a1-3)]GlcNAc
# Procedure, shortened: as §1
# [14] = target: GlcNAc(a1-6)Gal(b1-4)GlcNAc
# Procedure, shortened: as §1
# [15] = target: GlcNAc(b1-2)Gal(b1-3)GalNAc
# Procedure, shortened: as §1
# [16] = target: GlcNAc(b1-2)Gal(b1-3)GlcNAc
# Procedure, shortened: as §1
# [17] = target: GlcNAc(b1-2)Man(a1-3)[GlcNAc(b1-2)Man(a1-6)]Man(b1-4)GlcNAc(b1-4)GlcNAc
# Procedure, shortened: as §1
# [18] = target: GlcNAc(b1-2)Man(a1-3)[GlcNAc(b1-2)Man(a1-6)]Man(b1-4)GlcNAc(b1-4)[Fuc(a1-6)]GlcNAc
# Procedure, shortened: as §1
# [19] = target: GlcNAc(b1-2)Man(a1-3)[GlcNAc(b1-4)][GlcNAc(b1-2)Man(a1-6)]Man(b1-4)GlcNAc(b1-4)GlcNAc
# Procedure, shortened: as §1
# [20] = target: GlcNAc(b1-2)Man(a1-3)[GlcNAc(b1-4)][GlcNAc(b1-2)Man(a1-6)]Man(b1-4)GlcNAc(b1-4)[Fuc(a1-6)]GlcNAc
# Procedure, shortened: as §1
# [21] = target: GlcNAc(b1-2)[GlcNAc(b1-4)]Man(a1-3)[GlcNAc(b1-2)Man(a1-6)]Man(b1-4)GlcNAc(b1-4)GlcNAc
# Procedure, shortened: as §1
# [22] = target: GlcNAc(b1-2)[GlcNAc(b1-4)]Man(a1-3)[GlcNAc(b1-4)][GlcNAc(b1-2)Man(a1-6)]Man(b1-4)GlcNAc(b1-4)GlcNAc
# Procedure, shortened: as §1
# [23] = target: GlcNAc(b1-2)[GlcNAc(b1-4)]Man(a1-3)[GlcNAc(b1-4)][GlcNAc(b1-2)[GlcNAc(b1-6)]Man(a1-6)]Man(b1-4)GlcNAc(b1-4)GlcNAc
# Procedure, shortened: as §1
# [24] = target: GlcNAc(b1-2)[GlcNAc(b1-4)]Man(a1-3)[GlcNAc(b1-4)][GlcNAc(b1-2)[GlcNAc(b1-6)]Man(a1-6)]Man(b1-4)GlcNAc(b1-4)[Fuc(a1-6)]GlcNAc
# Procedure, shortened: as §1
# [25] = target: GlcNAc(b1-2)[GlcNAc(b1-6)]Man(a1-6)[GlcNAc(b1-2)Man(a1-3)]Man(b1-4)GlcNAc(b1-4)GlcNAc
# Procedure, shortened: as §1
# [26] = target: GlcNAc(b1-2)[GlcNAc(b1-6)]Man(a1-6)[GlcNAc(b1-2)Man(a1-3)]Man(b1-4)GlcNAc(b1-4)[Fuc(a1-6)]GlcNAc
# Procedure, shortened: as §1
# [27] = target: GlcNAc(b1-2)[GlcNAc(b1-6)]Man(a1-6)[GlcNAc(b1-4)][GlcNAc(b1-2)Man(a1-3)]Man(b1-4)GlcNAc(b1-4)GlcNAc
# Procedure, shortened: as §1
# GlcNAc(b1-3)Fuc = target: GlcNAc(b1-3)Fuc
# Procedure, shortened: as §1
# GlcNAc(b1-3)Gal = target: GlcNAc(b1-3)Gal
# Procedure, shortened: as §1
# [28] = target: GlcNAc(b1-3)Gal(b1-3)GalNAc
# Procedure, shortened: as §1
# GlcNAc(b1-3)Gal(b1-4)Glc = target: GlcNAc(b1-3)Gal(b1-4)Glc
# Procedure, shortened: as §1
# [29] = target: GlcNAc(b1-3)Gal(b1-4)GlcNAc
# Procedure, shortened: as §1
# [30] = target: GlcNAc(b1-3)Gal(b1-4)GlcNAc(b1-2)Man(a1-3)[GlcNAc(b1-3)Gal(b1-4)GlcNAc(b1-2)Man(a1-6)]Man(b1-4)GlcNAc(b1-4)GlcNAc
# Procedure, shortened: as §1
binder,measurement,setting,value
B1,glycan array binding signal (z-score),GalNAc(b1-6)GalNAc,-0.242
same,glycan array binding signal (z-score),GalNAc3S(b1-4)GlcNAc,-0.236
same,glycan array binding signal (z-score),GalNAc3S(b1-4)GlcNAc3S,-0.243
same,glycan array binding signal (z-score),[1],-0.223
same,glycan array binding signal (z-score),GalNAc4S6S(b1-4)GlcNAc,-0.231
same,glycan array binding signal (z-score),GalNAc6S(b1-4)GlcNAc,-0.237
same,glycan array binding signal (z-score),Glc(a1-4)Glc,-0.25
same,glycan array binding signal (z-score),[2],-0.236
same,glycan array binding signal (z-score),Glc(a1-6)Glc(a1-6)Glc,-0.256
same,glycan array binding signal (z-score),[3],-0.241
same,glycan array binding signal (z-score),Glc(b1-4)Glc,-0.255
same,glycan array binding signal (z-score),Glc(b1-6)Glc,-0.25
same,glycan array binding signal (z-score),GlcA(b1-3)Gal,-0.258
same,glycan array binding signal (z-score),GlcA(b1-3)GlcNAc,-0.224
same,glycan array binding signal (z-score),GlcA(b1-6)Gal,-0.188
same,glycan array binding signal (z-score),[4],-0.239
same,glycan array binding signal (z-score),[5],-0.237
same,glycan array binding signal (z-score),[6],-0.259
same,glycan array binding signal (z-score),[7],-0.231
same,glycan array binding signal (z-score),[8],-0.22
same,glycan array binding signal (z-score),[9],-0.196
same,glycan array binding signal (z-score),[10],-0.234
same,glycan array binding signal (z-score),[11],-0.235
same,glycan array binding signal (z-score),[12],-0.237
same,glycan array binding signal (z-score),[13],-0.087
same,glycan array binding signal (z-score),[14],1.27
same,glycan array binding signal (z-score),[15],-0.197
same,glycan array binding signal (z-score),[16],-0.273
same,glycan array binding signal (z-score),[17],-0.248
same,glycan array binding signal (z-score),[18],-0.232
same,glycan array binding signal (z-score),[19],-0.245
same,glycan array binding signal (z-score),[20],-0.244
same,glycan array binding signal (z-score),[21],-0.226
same,glycan array binding signal (z-score),[22],-0.241
same,glycan array binding signal (z-score),[23],-0.243
same,glycan array binding signal (z-score),[24],-0.238
same,glycan array binding signal (z-score),[25],-0.238
same,glycan array binding signal (z-score),[26],-0.224
same,glycan array binding signal (z-score),[27],-0.242
same,glycan array binding signal (z-score),GlcNAc(b1-3)Fuc,-0.233
same,glycan array binding signal (z-score),GlcNAc(b1-3)Gal,-0.257
same,glycan array binding signal (z-score),[28],-0.197
same,glycan array binding signal (z-score),GlcNAc(b1-3)Gal(b1-4)Glc,-0.242
same,glycan array binding signal (z-score),[29],-0.258
same,glycan array binding signal (z-score),[30],-0.233
